Assay results from the supplement of paper PMC8728848.
The other results are listed elsewhere or left out.

Assays:
Assay in all cases: glycan array binding signal (z-score within array); higher = stronger binding
Conditions in all cases: glycan notation: IUPAC condensed, linker removed
Glc(a1-4)Glc = target: Glc(a1-4)Glc
Procedure, shortened: (§1)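 Arrays were curated from the Consortium for Functional Glycomics database, 3228 in total, and kept only where the protein sequence was available. Binding is expressed as a within-array Z-score. This score was averaged across arrays of the same protein sequence at different concentrations or buffers and across linkers, and negative values can be read as non-binding.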

[1] = target: Glc(a1-4)Glc(a1-4)Glc(a1-4)Glc
Procedure, shortened: as §1

Glc(a1-6)Glc(a1-6)Glc = target: Glc(a1-6)Glc(a1-6)Glc
Procedure, shortened: as §1

[2] = target: Glc(a1-6)Glc(a1-6)Glc(a1-6)Glc
Procedure, shortened: as §1

Glc(b1-4)Glc = target: Glc(b1-4)Glc
Procedure, shortened: as §1

Glc(b1-6)Glc = target: Glc(b1-6)Glc
Procedure, shortened: as §1

GlcA(b1-3)Gal = target: GlcA(b1-3)Gal
Procedure, shortened: as §1

GlcA(b1-3)GlcNAc = target: GlcA(b1-3)GlcNAc
Procedure, shortened: as §1

GlcA(b1-6)Gal = target: GlcA(b1-6)Gal
Procedure, shortened: as §1

[3] = target: GlcA3S(b1-3)Gal(b1-4)GlcNAc(b1-2)Man
Procedure, shortened: as §1

[4] = target: GlcA3S(b1-3)Gal(b1-4)GlcNAc(b1-3)Gal(b1-4)Glc
Procedure, shortened: as §1

[5] = target: GlcNAc(a1-3)Gal(b1-4)GlcNAc
Procedure, shortened: as §1

[6] = target: GlcNAc(a1-4)Gal(b1-3)GlcNAc
Procedure, shortened: as §1

[7] = target: GlcNAc(a1-4)Gal(b1-4)GalNAc
Procedure, shortened: as §1

[8] = target: GlcNAc(a1-4)Gal(b1-4)GlcNAc
Procedure, shortened: as §1

[9] = target: GlcNAc(a1-4)Gal(b1-4)GlcNAc(b1-3)Gal(b1-4)Glc
Procedure, shortened: as §1

[10] = target: GlcNAc(a1-4)Gal(b1-4)GlcNAc(b1-3)Gal(b1-4)GlcNAc
Procedure, shortened: as §1

[11] = target: GlcNAc(a1-4)Gal(b1-4)GlcNAc(b1-3)Gal(b1-4)GlcNAc(b1-3)Gal(b1-4)GlcNAc
Procedure, shortened: as §1

[12] = target: GlcNAc(a1-4)Gal(b1-4)GlcNAc(b1-3)Gal(b1-4)[Fuc(a1-3)]GlcNAc(b1-3)Gal(b1-4)[Fuc(a1-3)]GlcNAc
Procedure, shortened: as §1

[13] = target: GlcNAc(a1-6)Gal(b1-4)GlcNAc
Procedure, shortened: as §1

[14] = target: GlcNAc(b1-2)Gal(b1-3)GalNAc
Procedure, shortened: as §1

[15] = target: GlcNAc(b1-2)Man(a1-3)[GlcNAc(b1-2)Man(a1-6)]Man(b1-4)GlcNAc(b1-4)GlcNAc
Procedure, shortened: as §1

[16] = target: GlcNAc(b1-2)Man(a1-3)[GlcNAc(b1-2)Man(a1-6)]Man(b1-4)GlcNAc(b1-4)[Fuc(a1-6)]GlcNAc
Procedure, shortened: as §1

[17] = target: GlcNAc(b1-2)Man(a1-3)[GlcNAc(b1-4)][GlcNAc(b1-2)Man(a1-6)]Man(b1-4)GlcNAc(b1-4)GlcNAc
Procedure, shortened: as §1

[18] = target: GlcNAc(b1-2)Man(a1-3)[GlcNAc(b1-4)][GlcNAc(b1-2)Man(a1-6)]Man(b1-4)GlcNAc(b1-4)[Fuc(a1-6)]GlcNAc
Procedure, shortened: as §1

[19] = target: GlcNAc(b1-2)[GlcNAc(b1-4)]Man(a1-3)[GlcNAc(b1-2)Man(a1-6)]Man(b1-4)GlcNAc(b1-4)GlcNAc
Procedure, shortened: as §1

[20] = target: GlcNAc(b1-2)[GlcNAc(b1-4)]Man(a1-3)[GlcNAc(b1-4)][GlcNAc(b1-2)Man(a1-6)]Man(b1-4)GlcNAc(b1-4)GlcNAc
Procedure, shortened: as §1

[21] = target: GlcNAc(b1-2)[GlcNAc(b1-4)]Man(a1-3)[GlcNAc(b1-4)][GlcNAc(b1-2)[GlcNAc(b1-6)]Man(a1-6)]Man(b1-4)GlcNAc(b1-4)GlcNAc
Procedure, shortened: as §1

[22] = target: GlcNAc(b1-2)[GlcNAc(b1-4)]Man(a1-3)[GlcNAc(b1-4)][GlcNAc(b1-2)[GlcNAc(b1-6)]Man(a1-6)]Man(b1-4)GlcNAc(b1-4)[Fuc(a1-6)]GlcNAc
Procedure, shortened: as §1

[23] = target: GlcNAc(b1-2)[GlcNAc(b1-6)]Man(a1-6)[GlcNAc(b1-2)Man(a1-3)]Man(b1-4)GlcNAc(b1-4)GlcNAc
Procedure, shortened: as §1

[24] = target: GlcNAc(b1-2)[GlcNAc(b1-6)]Man(a1-6)[GlcNAc(b1-2)Man(a1-3)]Man(b1-4)GlcNAc(b1-4)[Fuc(a1-6)]GlcNAc
Procedure, shortened: as §1

[25] = target: GlcNAc(b1-2)[GlcNAc(b1-6)]Man(a1-6)[GlcNAc(b1-2)Man(a1-3)][GlcNAc(b1-4)]Man(b1-4)GlcNAc(b1-4)GlcNAc
Procedure, shortened: as §1

[26] = target: GlcNAc(b1-2)[GlcNAc(b1-6)]Man(a1-6)[GlcNAc(b1-4)][GlcNAc(b1-2)Man(a1-3)]Man(b1-4)GlcNAc(b1-4)GlcNAc
Procedure, shortened: as §1

GlcNAc(b1-3)Fuc = target: GlcNAc(b1-3)Fuc
Procedure, shortened: as §1

GlcNAc(b1-3)Gal = target: GlcNAc(b1-3)Gal
Procedure, shortened: as §1

[27] = target: GlcNAc(b1-3)Gal(b1-3)GalNAc
Procedure, shortened: as §1

GlcNAc(b1-3)Gal(b1-4)Glc = target: GlcNAc(b1-3)Gal(b1-4)Glc
Procedure, shortened: as §1

[28] = target: GlcNAc(b1-3)Gal(b1-4)GlcNAc
Procedure, shortened: as §1

[29] = target: GlcNAc(b1-3)Gal(b1-4)GlcNAc(b1-2)Man(a1-3)[GlcNAc(b1-3)Gal(b1-4)GlcNAc(b1-2)Man(a1-6)]Man(b1-4)GlcNAc(b1-4)GlcNAc
Procedure, shortened: as §1

[30] = target: GlcNAc(b1-3)Gal(b1-4)GlcNAc(b1-2)Man(a1-3)[GlcNAc(b1-3)Gal(b1-4)GlcNAc(b1-2)Man(a1-6)]Man(b1-4)GlcNAc(b1-4)[Fuc(a1-6)]GlcNAc
Procedure, shortened: as §1

[31] = target: GlcNAc(b1-3)Gal(b1-4)GlcNAc(b1-2)[GlcNAc(b1-3)Gal(b1-4)GlcNAc(b1-6)]Man(a1-6)[GlcNAc(b1-3)Gal(b1-4)GlcNAc(b1-2)Man(a1-3)]Man(b1-4)GlcNAc(b1-4)GlcNAc
Procedure, shortened: as §1

[32] = target: GlcNAc(b1-3)Gal(b1-4)GlcNAc(b1-3)Gal(b1-4)GlcNAc
Procedure, shortened: as §1

[33] = target: GlcNAc(b1-3)Gal(b1-4)GlcNAc(b1-3)Gal(b1-4)GlcNAc(b1-2)Man(a1-3)[GlcNAc(b1-3)Gal(b1-4)GlcNAc(b1-3)Gal(b1-4)GlcNAc(b1-2)Man(a1-6)]Man(b1-4)GlcNAc(b1-4)GlcNAc
Procedure, shortened: as §1

[34] = target: GlcNAc(b1-3)Gal(b1-4)GlcNAc(b1-3)Gal(b1-4)GlcNAc(b1-2)Man(a1-3)[GlcNAc(b1-3)Gal(b1-4)GlcNAc(b1-3)Gal(b1-4)GlcNAc(b1-2)Man(a1-6)]Man(b1-4)GlcNAc(b1-4)[Fuc(a1-6)]GlcNAc
Procedure, shortened: as §1

[35] = target: GlcNAc(b1-3)Gal(b1-4)GlcNAc(b1-3)Gal(b1-4)GlcNAc(b1-2)[GlcNAc(b1-3)Gal(b1-4)GlcNAc(b1-3)Gal(b1-4)GlcNAc(b1-6)]Man(a1-6)[GlcNAc(b1-3)Gal(b1-4)GlcNAc(b1-3)Gal(b1-4)GlcNAc(b1-2)Man(a1-3)]Man(b1-4)GlcNAc(b1-4)[Fuc(a1-6)]GlcNAc
Procedure, shortened: as §1

B1: OrysaEULS2 (Oryza sativa) (protein)
chain: MVYCRANPNYAMTARNGAVVLAPANPKDEYQHWIKDMRWSTSIKDEEGYPAFALVNKATGQAIKHSLGQSHPVRLVPYNPEVMDESVLWTESRDVGNGFRCIRMVNNIYLNFDAFHGDKYHGGVRDGTDIVLWKWCEGDNQRWKIQPYYILEQKLISEEDLNSAVDHHHHHH
- glycan array binding signal (z-score) (Glc(a1-4)Glc): -0.185
- glycan array binding signal (z-score) [1]: -0.171
- glycan array binding signal (z-score) (Glc(a1-6)Glc(a1-6)Glc): -0.159
- glycan array binding signal (z-score) [2]: -0.196
- glycan array binding signal (z-score) (Glc(b1-4)Glc): -0.182
- glycan array binding signal (z-score) (Glc(b1-6)Glc): -0.144
- glycan array binding signal (z-score) (GlcA(b1-3)Gal): -0.199
- glycan array binding signal (z-score) (GlcA(b1-3)GlcNAc): -0.191
- glycan array binding signal (z-score) (GlcA(b1-6)Gal): -0.194
- glycan array binding signal (z-score) [3]: -0.267
- glycan array binding signal (z-score) [4]: -0.246
- glycan array binding signal (z-score) [5]: -0.212
- glycan array binding signal (z-score) [6]: -0.199
- glycan array binding signal (z-score) [7]: -0.188
- glycan array binding signal (z-score) [8]: -0.201
- glycan array binding signal (z-score) [9]: -0.094
- glycan array binding signal (z-score) [10]: -0.192
- glycan array binding signal (z-score) [11]: -0.172
- glycan array binding signal (z-score) [12]: -0.118
- glycan array binding signal (z-score) [13]: -0.205
- glycan array binding signal (z-score) [14]: -0.206
- glycan array binding signal (z-score) [15]: 3.13
- glycan array binding signal (z-score) [16]: 0.299
- glycan array binding signal (z-score) [17]: -0.143
- glycan array binding signal (z-score) [18]: -0.219
- glycan array binding signal (z-score) [19]: -0.179
- glycan array binding signal (z-score) [20]: -0.178
- glycan array binding signal (z-score) [21]: -0.18
- glycan array binding signal (z-score) [22]: -0.197
- glycan array binding signal (z-score) [23]: 1.24
- glycan array binding signal (z-score) [24]: 0.532
- glycan array binding signal (z-score) [25]: -0.172
- glycan array binding signal (z-score) [26]: -0.086
- glycan array binding signal (z-score) (GlcNAc(b1-3)Fuc): -0.265
- glycan array binding signal (z-score) (GlcNAc(b1-3)Gal): -0.206
- glycan array binding signal (z-score) [27]: -0.209
- glycan array binding signal (z-score) (GlcNAc(b1-3)Gal(b1-4)Glc): -0.18
- glycan array binding signal (z-score) [28]: -0.186
- glycan array binding signal (z-score) [29]: 0.768
- glycan array binding signal (z-score) [30]: 0.035
- glycan array binding signal (z-score) [31]: 0.674
- glycan array binding signal (z-score) [32]: -0.202
- glycan array binding signal (z-score) [33]: 0.555
- glycan array binding signal (z-score) [34]: 0.117
- glycan array binding signal (z-score) [35]: 0.084
